Test results from article PMC4336329 (PLoS ONE, 2015).
About 2,200 (0.71%) of roughly 310,000 compounds showed an effect of 50% or more. The effect is printed as a negative number. Some of the results follow.

Each molecule was assayed against human ether-à-go-go-related gene (hERG) potassium channel (human, UniProt Q12809) (assay: primary screen, population patch clamp on CHO cells stably expressing hERG).
human ether-à-go-go-related gene (hERG) potassium channel, sequence (Q12809 whole entry, looked up): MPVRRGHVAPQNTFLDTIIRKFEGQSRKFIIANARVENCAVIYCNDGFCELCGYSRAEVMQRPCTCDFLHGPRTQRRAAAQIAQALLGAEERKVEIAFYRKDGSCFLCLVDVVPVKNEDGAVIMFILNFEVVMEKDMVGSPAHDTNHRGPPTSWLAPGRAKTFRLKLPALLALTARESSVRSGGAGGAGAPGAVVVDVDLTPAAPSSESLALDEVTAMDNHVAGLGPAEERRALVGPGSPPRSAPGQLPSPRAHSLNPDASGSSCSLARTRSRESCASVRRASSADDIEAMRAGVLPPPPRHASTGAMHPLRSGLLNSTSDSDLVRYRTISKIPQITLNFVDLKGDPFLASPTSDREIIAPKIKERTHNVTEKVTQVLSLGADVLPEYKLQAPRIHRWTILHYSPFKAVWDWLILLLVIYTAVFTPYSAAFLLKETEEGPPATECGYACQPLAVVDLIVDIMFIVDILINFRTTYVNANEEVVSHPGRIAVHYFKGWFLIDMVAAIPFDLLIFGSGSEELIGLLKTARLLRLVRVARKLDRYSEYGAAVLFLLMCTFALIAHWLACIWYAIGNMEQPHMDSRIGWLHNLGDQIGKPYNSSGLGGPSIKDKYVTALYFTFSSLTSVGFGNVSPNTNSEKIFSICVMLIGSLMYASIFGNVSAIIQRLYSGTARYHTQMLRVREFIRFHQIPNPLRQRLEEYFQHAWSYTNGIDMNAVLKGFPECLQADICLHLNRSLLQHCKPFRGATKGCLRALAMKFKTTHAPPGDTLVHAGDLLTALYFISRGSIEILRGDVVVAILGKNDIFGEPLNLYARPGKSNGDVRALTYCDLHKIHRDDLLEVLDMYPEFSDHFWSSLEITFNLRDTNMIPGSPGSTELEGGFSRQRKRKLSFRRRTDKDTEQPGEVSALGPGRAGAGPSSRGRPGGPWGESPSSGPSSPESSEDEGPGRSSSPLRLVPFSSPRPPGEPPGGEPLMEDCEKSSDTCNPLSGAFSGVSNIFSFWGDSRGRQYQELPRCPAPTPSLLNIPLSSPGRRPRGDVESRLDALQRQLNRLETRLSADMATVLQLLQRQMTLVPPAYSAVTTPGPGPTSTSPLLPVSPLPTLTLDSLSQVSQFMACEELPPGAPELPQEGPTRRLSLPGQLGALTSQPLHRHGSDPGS

Row | Structure (SMILES) | hERG current change (%, negative = inhibition) at 1uM [%]
1 | CC(=O)NCCCC(=O)NN1C(=S)N(Cc2ccccc2)C(=O)C1CC(=O)Nc1cccc(C)c1 (centres unmarked) | 7.75
2 | Cc1c(C#N)c(N)nc2c3c(sc12)NC(=O)CC3c1ccc(F)cc1 (centres unmarked) | 12.7
3 | COc1cc2c(cc1OC)C(c1cccc(Cl)c1)CC(=O)N2 (centres unmarked) | 8.13
4 | CC(C)CCNC(=O)CN1C(=O)NC(c2ccccc2)(c2ccccc2)C1=O | 9.25
5 | Cc1ccc(-c2nc(S(=O)(=O)c3ccc(C)cc3)c(N3CCOCC3)o2)cc1 | 1.18
6 | CCOc1ncccc1C(=O)NCc1ccccc1Cl | 6.85
7 | Cc1cc(=O)n2nc(N3CCC(C(=O)NCc4cccc(Cl)c4)CC3)sc2n1 | 6.73
8 | CC(=O)N1c2ccccc2C(=O)C1N1CCCCC1 (centres unmarked) | -5.64
9 | O=C(CCNc1ccccc1)c1ccc2c(c1)OCO2 | 2.23
10 | O=C(O)/C=C/C(=O)Nc1ccc(-n2ccc(C(F)(F)F)n2)cc1 | 7.99
11 | CCCCOc1ccc(C(=O)N2CCNC(=O)C2)cc1 | 11
12 | CCOC(=O)C1CCN(C(=O)c2cc3c(=O)n4ccccc4nc3s2)CC1 | 9.28
13 | N#C/C(=C/c1ccc(Sc2nc3ccccc3[nH]2)o1)c1cccc(F)c1 | -2.54
14 | CCCCCCOc1ccc(/C(N)=N/O)cc1 | -0.178
15 | CCCCC1=CC2=C(c3ccco3)C(=O)C(C)(OC(=O)c3ccc(OC)cc3)C(=O)C2=CN1Cc1ccc2c(c1)OCO2 (centres unmarked) | 4.17
16 | COc1ccc(C)cc1NC(=O)CNC(=O)Cn1ccc2ccccc2c1=O | 3.68
17 | COc1ccccc1N1CCN(C(=O)C2CCN(S(=O)(=O)c3ccc(C)cc3)CC2)CC1 | 9.73
18 | CNC(=O)c1c(NC(=O)c2ccco2)sc2c1CCCC2 | 10
19 | Cc1ccc(C)c(C(=O)CN2Cc3ccccc3C2=O)c1 | 9.3
20 | O=C(CSc1nnc(CNc2ccc(F)cc2)n1Cc1ccco1)N1CCCC1 | -15.6
21 | O=C(NCc1cccnc1)NC1CCCCC1 | 8.24
22 | Cc1cc(C)cc(NC(=S)NN)c1 | 5.97

Row | Structure (SMILES) | hERG current change (%, negative = inhibition) at 1uM [%]
23 | COc1ccc(S(=O)(=O)N2CCCCC2)cc1NC(=O)CCOc1cc(C)ccc1C | 12.6
24 | Cc1cc[n+](-c2ccccc2)c2ccccc12.[Cl-] | 39.6
25 | O=C(O)c1ccc(CNC(=O)c2ccc(S(=O)(=O)N3CCCCC3)cc2)cc1 | 3.78
26 | CCOc1ccc(S(=O)(=O)N2CCN(C(=O)c3ccncc3)CC2)cc1 | 3.79
27 | O=C(CCl)NNc1cccc(Cl)n1 | 9.61
28 | O=C(CCCc1nc(-c2ccc(Cl)cc2)no1)NC1CCCC1 | 15
29 | COC(=O)CS(=O)(=O)c1nnc([C@H](Cc2ccccc2)NC(=O)OC(C)(C)C)o1 | 8.99
30 | COc1ccc(C2CC(c3ccc(OC)cc3)n3nc(NS(C)(=O)=O)nc3N2)cc1 (centres unmarked) | 2.45
31 | Cc1ccc(CCNc2ccccc2)c[n+]1[O-] | 3.25
32 | Cc1cc(C(=O)N2CCN(c3ccc(F)cc3)CC2)on1 | 4.48
33 | NC(=O)c1ccccc1NC(=S)NC(=O)c1ccc(Br)o1 | 1.92
34 | COc1ccccc1NC(=O)CS(=O)(=O)c1cn(CC(=O)N2CCOCC2)c2ccccc12 | 5.18
35 | O=C(CN(C(=O)c1csnn1)c1ccc(F)c(Cl)c1)NCc1ccc2c(c1)OCO2 | -0.168
36 | CC(C)C[C@H](NC(=O)c1nc[nH]c1C(=O)NCc1ccc(CNC(=O)OC(C)(C)C)cc1)C(=O)OCc1ccccc1 | 13.3
37 | O=C(Nc1ccc(F)cc1)c1cccnc1Oc1ccccc1 | 5.92
38 | CCOc1c(O)ccc(C2NC(=O)NC(C)=C2C(=O)OC)c1[N+](=O)[O-] (centres unmarked) | -3.15
39 | COc1ccc(C(=O)NNC(=O)CCn2nnc(-c3ccc(C)cc3)n2)cc1OC | 14.2
40 | CC[n+]1c(/C=C/C=C/c2ccc(N(C)C)cc2)sc2ccccc21.[O-][Cl+3]([O-])([O-])[O-] | -29
41 | CCn1c(CSc2nccn2C)nc2cc(C(=O)O)ccc21 | 12.7
42 | Cc1ccc(OCC(O)CN2CCC(Cc3ccccc3)CC2)c(C)c1.Cl (centres unmarked) | -49.9
43 | CC(C)(CO)NC12CC3CC(CC(C3)C1)C2 | 6.93
44 | CC(=O)NNC(=O)CN1C(=O)CN=C(c2ccccc2)c2cc(Br)ccc21 | 10.7
